Reference: PMC4336329 (PLoS ONE, 2015)
The campaign covered roughly 310,000 compounds. About 2,200 (0.71%) showed an effect of 50% or more. Effects have a minus sign here. This is one part of the list.

Molecular target: human ether-à-go-go-related gene (hERG) potassium channel (human, UniProt Q12809)
Assay: primary screen, population patch clamp on CHO cells stably expressing hERG

human ether-à-go-go-related gene (hERG) potassium channel, sequence (Q12809 whole entry, looked up): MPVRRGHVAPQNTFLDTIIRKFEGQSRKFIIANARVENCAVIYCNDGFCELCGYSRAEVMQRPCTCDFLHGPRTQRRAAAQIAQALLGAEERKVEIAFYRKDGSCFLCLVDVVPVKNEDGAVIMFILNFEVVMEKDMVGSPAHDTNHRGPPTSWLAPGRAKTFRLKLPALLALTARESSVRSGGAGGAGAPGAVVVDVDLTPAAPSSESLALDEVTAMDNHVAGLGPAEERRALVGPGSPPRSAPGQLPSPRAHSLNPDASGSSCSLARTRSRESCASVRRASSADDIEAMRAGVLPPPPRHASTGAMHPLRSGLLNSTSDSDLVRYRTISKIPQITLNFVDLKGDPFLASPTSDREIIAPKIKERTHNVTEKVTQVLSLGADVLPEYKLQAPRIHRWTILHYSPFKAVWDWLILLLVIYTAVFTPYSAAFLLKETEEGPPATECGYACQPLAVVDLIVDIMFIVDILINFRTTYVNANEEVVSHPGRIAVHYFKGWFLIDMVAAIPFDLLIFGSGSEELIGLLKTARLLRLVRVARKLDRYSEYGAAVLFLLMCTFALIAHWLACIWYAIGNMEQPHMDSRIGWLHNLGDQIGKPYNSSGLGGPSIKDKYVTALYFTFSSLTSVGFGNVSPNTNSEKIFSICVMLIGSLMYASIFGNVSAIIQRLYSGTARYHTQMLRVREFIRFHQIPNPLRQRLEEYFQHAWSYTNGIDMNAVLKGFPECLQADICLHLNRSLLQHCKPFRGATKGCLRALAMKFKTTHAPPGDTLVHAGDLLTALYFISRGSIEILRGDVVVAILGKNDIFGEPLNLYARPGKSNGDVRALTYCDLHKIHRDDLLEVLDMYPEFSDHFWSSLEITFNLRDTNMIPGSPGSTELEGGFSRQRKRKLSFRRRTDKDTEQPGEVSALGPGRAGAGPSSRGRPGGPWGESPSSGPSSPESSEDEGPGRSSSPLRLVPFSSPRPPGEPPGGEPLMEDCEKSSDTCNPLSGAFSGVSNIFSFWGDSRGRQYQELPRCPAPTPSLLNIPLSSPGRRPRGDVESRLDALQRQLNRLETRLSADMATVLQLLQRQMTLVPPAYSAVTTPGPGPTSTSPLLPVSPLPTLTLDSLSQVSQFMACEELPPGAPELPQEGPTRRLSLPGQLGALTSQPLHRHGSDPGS

In order of falling “hERG current change (%, negative = inhibition) at 1uM” value:
1. COc1ccc(CNC(=O)CCS(=O)(=O)c2ccc3c(c2)CCN3C(C)=O)cc1  21.3%
2. Br.CC(C)c1nnc2n1N=C(c1ccc(Cl)cc1)CS2  20.4%
3. N#C/C(=C\c1ccc(N2CCOCC2)cc1)c1ccccc1  19.6%
4. O=C(COC(=O)c1ccc(NS(=O)(=O)c2ccc3c(c2)OCCO3)cc1)NC1CCS(=O)(=O)C1 (centres unmarked)  19.2%
5. COc1cccc(OCC(=O)NNC(=O)CCc2ccccc2)c1  18.3%
6. CC(=O)Nc1ccc(-c2csc(NNC(=O)c3ccccc3)n2)cc1  17.8%
7. Cc1c(OCc2ccc(C(=O)O)cc2)ccc2c(-c3ccccc3)cc(=O)oc12  17.5%
8. O=C(COC(=O)c1ccc(O)cc1)Nc1ccccc1  17.2%
9. CCOC(=O)C1CCN(c2ccc(-c3cccs3)nn2)CC1  16.1%
10. COc1ccc(NC(=O)CCCC(=O)c2ccccc2)cc1  16%
11. Cn1c2ccccc2c(=O)c2cc(C#Cc3ccc(N)cc3)ccc21  15.8%
12. COc1cccc(C(CNC(=O)C(c2ccccc2)c2ccccc2)N(C)C)c1 (centres unmarked)  15.8%
13. CC(=O)Nc1cccc(-n2nnc(SCC(=O)Nc3ccccc3)n2)c1  15.7%
14. Cc1ccc(NC(=O)c2cc(=O)[nH]c3ccccc23)cc1C  15.2%
15. O=c1[nH]c2c(oc3ccccc32)c(=O)n1Cc1ccccc1  14.8%
16. OCCOCC#CCN1CCOCC1  14.7%
17. CCC(C)NC(=O)[C@H]1N2C(=O)c3ccccc3C2SC1(C)C (some centres unmarked)  14.4%
18. CC(C)N1CCN(Cc2cc3ccccc3[nH]2)CC1CCO (centres unmarked)  14.3%
19. COC(=O)c1sccc1NC(=O)c1ccccc1C(=O)O  14.2%
20. CCN(CC)c1ccc(NC(=O)Nc2ccc(C(C)=O)cc2)cc1  14.2%
21. CC(=O)N1CCN(Cc2nc3cc(NC(=O)COc4cccc(C)c4)ccc3n2C)CC1.Cl  13.2%
22. Cc1ccccc1-n1nc(C)c2cc(C(=O)N3CCN(S(=O)(=O)c4ccc(Cl)cc4)CC3)sc21  13.1%
23. CCOc1ccc(CNc2ccc(CNc3ncn[nH]3)cc2)cc1  12.9%
24. C=CCn1cccc(C(=O)Nc2cc(OC)ccc2OC)c1=O  12.7%
25. COc1ccc(/C(C)=N\NC(=O)C(c2ccncc2)N2CCOCC2)cc1 (centres unmarked)  12.6%
26. COc1ccc(-c2nc3ccccn3c2Cl)cc1  12.5%
27. CN(C(=O)c1cccc(NC(=O)c2ccco2)c1)c1ccccc1  12.4%
28. CC(C)(C)C(=O)Nc1ccccc1C(=O)Nc1ccccn1  12.4%
29. O=C(O)CCSCc1ccccc1F  12.4%
30. C=CCOc1c(Br)cc(CNn2nnnc2N)cc1OC  12.3%
31. CCOc1ccc(/C(O)=C2/C(=O)C(=O)N(CC3CCCO3)C2c2cccs2)cc1 (centres unmarked)  12.3%
32. Cc1ccccc1CN1CCCN(Cc2ccc(Cl)cc2)S1(=O)=O  12%
33. O=S(=O)(c1ccc(-c2ccon2)s1)N1CCCC1  11.7%
34. Cc1cc(NC(=O)c2ccc(Cl)c([N+](=O)[O-])c2)no1  11.3%
35. O=C(O)C(Cc1ccc(O)cc1)N1C(=O)c2ccccc2C1=O (centres unmarked)  11.3%
36. CC(=O)c1cccc(Nc2nc3ccccc3n3cnnc23)c1  11.3%
37. COc1cc2ccccc2cc1-c1nnc(COc2ccccc2)o1  11%
38. Cc1ccc(C)c(N(CC(=O)N/N=C/c2ccc(-c3ccc([N+](=O)[O-])cc3)o2)S(=O)(=O)c2ccccc2)c1  11%
39. C=CCn1c(O)c(C=NCCN(C)C)c(=O)[nH]c1=O  10.9%
40. CC(=O)Nc1ccc(NC(=O)c2cccc(C(=O)OC(C)C)n2)cc1  10.8%
41. Cc1ccc(N(CC(=O)N/N=C/c2cc(C)n(-c3ccccc3)c2C)S(C)(=O)=O)c(C)c1  10.7%
42. COc1ccccc1N1CCN(C(=O)C2CCN(C(=O)c3ccccc3C)CC2)CC1  10.2%
43. COc1ccc(-c2csc(NC(=O)c3ccccc3F)n2)cc1  10%
44. O=C(CCC(=O)c1cccs1)NNC(=O)c1ccccc1O  9.97%
45. COc1cccc(C2=CC(=O)C[C@H](c3ccc4c(c3)OCO4)C2)c1OC  9.88%
46. CC(=O)NC(CC(=O)N(C)C1CCCCC1)c1ccccc1 (centres unmarked)  9.84%
47. CCOc1ccccc1Nc1nc(N)nc(CSc2nncn2C)n1  9.75%
48. C=C(C)COc1ccc(-c2ncncc2-c2ccccc2)c(O)c1  9.56%
49. CC(=O)Nc1ccc(S(=O)(=O)N2CCN(Cc3ccncc3)CC2)cc1  9.39%
50. CC(C)C(C(=O)NCc1ccco1)N(CC1CCCO1)C(=O)CNS(=O)(=O)c1ccc(F)cc1 (centres unmarked)  9.38%
51. Cc1ccc(OC(=O)c2ccc([N+](=O)[O-])cc2Cl)cn1  9.22%
52. CNC(=S)Nc1cccc2[nH]ncc12  9.13%
53. CCCCn1c(N)c(N(CC(C)C)C(=O)CSc2ccc3c(c2)OCCO3)c(=O)[nH]c1=O  8.87%
54. NC(=O)c1ccc(NCC2CCCO2)c([N+](=O)[O-])c1 (centres unmarked)  8.75%
55. O=C(Nc1cc(C(F)(F)F)ccc1Cl)C(Sc1ccccn1)c1ccccc1 (centres unmarked)  8.72%
56. COc1cc(OC)c(C2=NOC(C(=O)O)C2)cc1Cl (centres unmarked)  8.64%
57. CCCCN(CCCC)C(=O)c1cc2ccccc2c(=O)o1  8.32%
58. Cc1ccc(NC(=O)COC(=O)C(NS(=O)(=O)c2ccc(Cl)cc2)C(C)O)cc1 (centres unmarked)  7.76%
59. Nc1cc(=O)nc(SCC(=O)NCc2ccccc2)n1CCc1ccccc1  7.58%
60. COC(=O)c1ccc(C2c3c(oc4ccccc4c3=O)C(=O)N2CCCN2CCOCC2)cc1 (centres unmarked)  7.41%
61. O=C(Cc1ccc(Cl)cc1)NNC(=S)NC(=O)c1cccnc1  6.61%
62. CC(C)(C)NC(=O)c1cccc(NC(=O)Cc2cccs2)c1  6.55%
63. CCOC(=O)C1=C(COC(=O)c2cccnc2Cl)NC(=O)NC1C (centres unmarked)  6.46%
64. CCOC(=O)C1CCN(C(=O)c2cccc(NS(=O)(=O)c3ccc(Br)cc3)c2)CC1  6.44%
65. CC(=O)Nc1ccccc1C(=O)OCc1ccc(F)cc1  6.32%
66. COc1ccc(N2CCN(c3nc4ccccc4n3CC(=O)c3ccccc3)CC2)cc1  6.29%
67. O=C(Nc1ccc(Nc2ccccc2)cc1)c1ccc(Cl)c([N+](=O)[O-])c1  6.23%
68. CN(C)CCCN(C(=O)c1ccc(S(=O)(=O)N2CCc3ccccc32)cc1)c1nc2ccc(F)cc2s1.Cl  6.04%
69. CCCN1CCC(NC(=O)CC2C(=O)NCCN2Cc2ccccc2C)CC1 (centres unmarked)  5.75%
70. Cc1ccc(NCc2n[nH]c(=S)n2-c2ccccc2)cc1  5.36%
71. CC(C)C(=O)Nc1cccc(NC(=S)NC(=O)c2ccc([N+](=O)[O-])cc2)c1  4.81%
72. CCCCn1c(SCC(=O)NCCOC)nc2ccc(N3CCOCC3)cc2c1=O  4.73%
73. COC(=O)Cn1cc(S(=O)(=O)NCc2ccc(C)cc2)c2cc([N+](=O)[O-])ccc21  4.67%
74. COc1ccc(F)cc1S(=O)(=O)Nc1ccc2c(c1)OCCO2  4.62%
75. Fc1ccc(C2=CCN(C(c3ccc(Cl)cc3)c3nnnn3Cc3ccccc3)CC2)cc1 (centres unmarked)  3.95%
76. O=C(COC(=O)/C=C/c1ccc(Cl)cc1)NC1CCCCCC1  2.86%
77. COc1ccccc1NC(=O)Nc1nc(CC(=O)NCc2ccc(F)cc2)cs1  1.7%
78. CC(C)NC(=S)N=Nc1c(O)[nH]c2ccc(C(C)C)cc12  1.56%
79. CC(C)Cc1ccc(C(C)NC(=O)c2ccc(=O)[nH]c2)cc1 (centres unmarked)  1.53%
80. CCOC(=O)c1sc(N(Cc2ccccc2)C(=O)COC(=O)c2ccccc2O)nc1C  1.47%
81. O=C(NCCc1ccc2c(c1)OCCO2)c1ccccc1F  0.244%
82. Cc1cc(-c2c(C)[nH]n(-c3ccccc3)c2=O)n[nH]1  -3.68%
83. CCCCN(C(=O)c1ccc(N(C)S(=O)(=O)c2ccc(C)cc2)cc1)c1c(N)n(CCCC)c(=O)[nH]c1=O  -4.43%
84. O=c1cc(CSc2nnnn2-c2ccc(O)cc2)nc2sccn12  -4.91%
85. O=C(NCc1ccco1)C1Cc2ccccc2CN1S(=O)(=O)c1ccccc1F (centres unmarked)  -5.25%
86. CC1Cc2ccccc2N1C(=O)CN1CCC(n2nnc3cc(C(F)(F)F)ccc32)CC1 (centres unmarked)  -9.16%
87. O=C(NCCc1ccc(Cl)cc1)C1CC(=O)N(CCc2ccccc2)C1 (centres unmarked)  -13.6%
88. CC(=O)c1ccc(N(C)C)c2c(N(C)C)cccc12  -14.5%
89. CCCc1cc(N2CCCC(C(=O)Nc3cc(Cl)ccc3OC)C2)n2ncnc2n1 (centres unmarked)  -24.5%
